Experimental data published in US12484583B2 (priority 2019, dated 2025).
Several values for one entry are separate records, joined by “and”; a condition that tells them apart may be missing. Identical values can stand only once. Like-named read-outs stand apart in the source and are kept apart here.

How the values were obtained:
[1] = test system: Rhizoctonia; details: in vivo, Abamectin full label (18 ppm), corn seeds
[2] = test system: Fusarium culmorum; details: in vivo, Abamectin full label (18 ppm), corn seeds
[3] = test system: Trichoderma hazarum; details: in vivo, Abamectin full label (18 ppm), corn seeds
[4] = test system: Aspergillus sp; details: in vivo, Abamectin full label (18 ppm), corn seeds
[5] = test system: Botrytis sp; details: in vivo, Abamectin full label (18 ppm), corn seeds
[6] = test system: Fusarium culmorum; assay: Fungal growth on PDA agar, abamectin, 8 and 12 days (Example 13); assay type: cell-based
Description: (§1) The Colby equation (Colby, 1967. Weeds 15: 20-22) calculates the expected antifungal activity (E in %) of a combination comprising more than one active ingredients: E=X+Y−[(X·Y)/100] wherein X and Y are the observed antifungal activities (in %) of the individual active ingredients x and y, respectively. If the observed antifungal activity (O in %) of the combination exceeds the expected antifungal activity (E in %) of the combination and the synergy factor O/E is thus >1.0, the combined application of the active ingredients leads to a synergistic antifungal effect.
(§2) Agar medium was prepared by mixing in a 100 ml Duran bottle 3.9 g of potato dextrose agar (PDA) from Carl-Roth (Carl-Roth GmbH+Co. KG, Karlsruhe, Germany) with 100 ml deionized water and autoclaving the Duran bottle at 120° C. for 15 minutes. After autoclaving, the solution was cooled by putting it in a 48° C. oven for about two hours. […] The medium in the Duran bottle was divided over 5 petri dishes (90×15 mm), 20 ml per petri dish by using 25 ml serological pipets (ROTILABO®; Carl-Roth).
(§3) Fungal spore suspensions were prepared by drenching a fully grown petri dish with sterile water. The fungus was scraped off and filtered through a Miracloth (pore size: 22-25 μm) (Merck KGaA, Darmstadt, Germany; catalogue number: 475855). The number of spores were counted with a hemocytometer and fungal suspension was adjusted to 10^6 spores per ml. Afterward, 5 µl of prepared spore suspension was pipetted on the center of the agar plate. The plates were incubated at 25° C. Measurement of the fungal growth was done using calipers at different time points.
See Example 6. In this example the product […]® (Syngenta) containing the active ingredient abamectin belonging to IRAC Group 6 was used.
The insecticide concentration “N” (see below) that was used was 75 μl of insecticide product per 100 ml PDA agar. 0.5N is 37.5 μl of the product per 100 ml PDA agar.
The efficacy was assessed after 8 and 12 days of incubation in a stove at 25° C.

[7] = test system: Fusarium culmorum; assay: Fungal growth on PDA agar, abamectin, 7 days (Example 14); assay type: cell-based
Description: as §1, §2, §3
See Example 6. In this example the product […]® (Syngenta) containing the active ingredient abamectin belonging to IRAC Group 6 was used. The insecticide concentration “N” (see below) that was used was 75 μl of insecticide product per 100 ml PDA agar. 0.5N is 37.5 μl of the product per 100 ml PDA agar.
The efficacy was assessed after 7 days of incubation in a stove at 25° C.

[8] = test system: Fusarium culmorum; assay type: in vivo; details: Corn seed; imidacloprid full label; 14 days
[9] = test system: Fusarium graminerum; assay type: cell-based
[10] = abamectin 0.5N (37.5 μl VERTIMEC per 100 ml PDA), alone or + natamycin 1 ppm (1:6.75 w/w), after 8 days
[11] = abamectin 0.5N (37.5 μl VERTIMEC per 100 ml PDA), alone or + natamycin 1 ppm (1:6.75 w/w), after 12 days
[12] = abamectin 1N (75 μl VERTIMEC per 100 ml PDA), alone or + natamycin 1 ppm (1:13.5 w/w), after 8 days
[13] = abamectin 1N (75 μl VERTIMEC per 100 ml PDA), alone or + natamycin 1 ppm (1:13.5 w/w), after 12 days
[14] = abamectin 0.5N (37.5 μl VERTIMEC per 100 ml PDA), alone or + natamycin 1 ppm (1:6.75 w/w)
[15] = abamectin 1N (75 μl VERTIMEC per 100 ml PDA), alone or + natamycin 1 ppm (1:13.5 w/w)

Compound | healthy seedlings [1] | healthy seedlings [2] | healthy seedlings [3] | healthy seedlings [4] | healthy seedlings [5] | Area (fungal growth) [6, 10] [mm2] | O % observed antifungal activity [6, 10] [%] | Area (fungal growth) [6, 11] [mm2] | O % observed antifungal activity [6, 11] [%] | Area (fungal growth) [6, 12] [mm2] | O % observed antifungal activity [6, 12] [%] | Area (fungal growth) [6, 13] [mm2] | O % observed antifungal activity [6, 13] [%] | Area (fungal growth) [7, 14] [mm2] | O % observed antifungal activity [7, 14] [%] | Area (fungal growth) [7, 15] [mm2] | O % observed antifungal activity [7, 15] [%] | percentage of healthy seedlings [8] | Area (fungal growth) ([9]; after 8 days) | Area (fungal growth) ([9]; after 12 days)
abamectin | A (A represents the lowest rate of healthy seedlings) | A (A represents the lowest rate of healthy seedlings) | A (A represents the lowest rate of healthy seedlings) | A (A represents the lowest rate of healthy seedlings) | A (A represents the lowest rate of healthy seedlings) | 2881.30 | 11.71 | 4282.74 | 11.74 | 2475.61 | 24.14 | 3944.95 | 18.70 | 764.44 | 74.33 | 453.27 | 84.78 |  |  | 
O=[N+]([O-])NC1=NCCN1Cc1ccc(Cl)nc1 [Imidacloprid, N-[1-[(6-chloropyridin-3-yl)methyl]-4,5-dihydroimidazol-2-yl]nitramide] |  |  |  |  |  |  |  |  |  |  |  |  |  |  |  |  |  | A (A represents the lowest rate of healthy seedlings) | 2779.54 mm2 and 4635.62 mm2 | 4606.42 mm2 and 5273.80 mm2
